These results are taken from PubChem BioAssay AID463173 (ICCB-Longwood Screening Facility, Harvard Medical School, 2010).

Each structure is given as a SMILES string. Out of some 52,000 compounds screened, about 4,300 (8.3%) were called active. Cut-off read from the data, not from the text of the source: active = survival mostly below about 52% (no sharp cut-off); inactive = mostly above about 56%. The list shows a part of the results.

The test system of the assay is DeltatarO mutant. In words: S. aureus survival, RN4220 and DeltatarO strains – OD600, teichoic acid synthesis inhibitors, primary screen (AID 463173). Particulars: S. aureus RN4220 wild type/DeltatarO growth, OD600, 18 h, active compounds read low, screened at 18.75 µg/mL (by protocol).
`CC(C)c1ccc(NS(=O)(=O)c2ccc3[nH]cc(C(=O)NC4CCCC4)c(=O)c3c2)cc1`: the survival is active: 4%.

For the compound `CCCn1ccc2c(OCC(=O)Nc3ccc(C(F)(F)F)cc3)cccc2c1=O`, the survival is inactive: 75%.

On to `O=C(Nc1ccc(Cl)c(C(F)(F)F)c1)c1cc2nc(-c3ccc4c(c3)OCO4)cc(C(F)(F)F)n2n1`, for which the survival was inactive: 75%.

Turning to `CCC(O)c1nc2ccccc2n1CCOc1cc(C)cc(C)c1` (stereo not drawn), the survival is inactive: 100%.

Consider `COc1ccc(NC(=O)CSc2n[nH]c(-c3ccccc3)n2)cc1Cl`, for which the survival was inactive: 88%.

With `O=C(Nc1ccccc1F)c1oc2ccccc2c1NC(=O)C12CC3CC(CC(C3)C1)C2`, the survival was inactive: 126%.

As for `CCOc1ccccc1C(=O)Nc1cc2c(cc1N1CCCCC1)n(C)c(=O)n2C`, the survival is inactive: 65%.

Consider `N#C/C(=C\c1ccccc1F)c1nc2ccccc2c(=O)[nH]1`, for which the survival was inactive: 66%.

`c1ccc(Cc2[nH]nc3ccccc23)cc1`: the survival is inactive: 89%.

As to `O=C(O)CCC(=O)Nc1ccc(N2CCCCC2)c(C(=O)O)c1`, the survival was inactive: 103%.

On to `Cc1cc(C)cc(NS(=O)(=O)c2ccc3[nH]cc(C(=O)NCc4ccco4)c(=O)c3c2)c1`, for which the survival was inactive: 58%.

As for `CC(=O)c1ccc(NC(=O)CN2C(=O)CCc3cc(S(=O)(=O)N4CCC(C)CC4)ccc32)cc1`, the survival is inactive: 87%.

Take `COc1cccc(NC(=O)CCc2nnc3n(CC(C)C)c(=O)c4ccccc4n23)c1`: the survival was inactive: 99%.

Regarding `O=C(/C=C/c1ccccc1)Nc1nc(-c2cccs2)ns1`, the survival is inactive: 71%.

For the compound `Cc1ccc(OCC(=O)Nc2ccccc2C(=O)OCc2cc(=O)n3c(C)csc3n2)cc1`, the survival was inactive: 89%.

In the case of `CC(C)OC(=O)c1c(NC(=O)c2cc3nc(-c4ccccc4)cc(C(F)(F)F)n3n2)sc2c1CCCC2`, the survival is inactive: 92%.

On to `Cc1ccc(-c2nnc3ccccc3c2C(=O)Nc2cccc(C(F)(F)F)c2)cc1`, for which the survival is inactive: 98%.

Consider `CSc1nnc2c(n1)OC(c1cccc(O)c1Cl)Nc1ccccc1-2` (stereo not drawn), for which the survival is inactive: 73%.

Take `CC1=C(C(=O)Nc2ccc(C)cc2C)C(c2ccc[nH]2)n2ncnc2N1` (stereo not drawn): the survival is inactive: 89%.

As to `CC(C(=O)NCc1ccc(Cl)cc1)n1ccc2cc(S(=O)(=O)N3CCCC3)ccc21` (stereo not drawn), the survival is inactive: 66%.

`N#Cc1cc2c(=O)n3ccccc3nc2n(-c2nnc(SCc3ccccc3F)s2)c1=O`: the survival is inactive: 81%.

On to `N#CC1=C(N)SC(N)=C(C#N)C1c1cccs1`, for which the survival was inactive: 105%.

With `COC(=O)N1N=C(C)CC1(O)c1ccc(Cl)cc1` (stereo not drawn), the survival was inactive: 87%.

Take `CCOC(=O)c1noc2nc(C)n(CC(=O)Nc3ccc(Br)cc3C)c(=O)c12`: the survival is inactive: 128%.

With `COc1ccc(OC)c(-n2cnc3cc(C(=O)NCCc4ccccc4)ccc32)c1`, the survival was inactive: 88%.

On to `COC(CNS(=O)(=O)c1ccc(S(=O)(=O)NCc2ccccc2)cc1)OC`, for which the survival is inactive: 71%.

In the case of `Cc1cc(Nc2cccc(C(F)(F)F)c2)nc2ccc(NC(=O)c3cncc(Br)c3)cc12`, the survival is inactive: 118%.

Take `Cc1ccc(CN(C(=O)c2ccc([N+](=O)[O-])cc2)c2ccccn2)cc1`: the survival is inactive: 52%.

Consider `CCOc1ccc(-n2c(=O)c3sc4ccccc4c3n(Cc3ccc(F)cc3)c2=O)cc1`, for which the survival was inactive: 77%.

Take `Cc1ccc(NC(=O)c2ccc(CN3CC(=O)N4CCCCC4C3=O)cc2)cc1C` (stereo not drawn): the survival was inactive: 77%.

`CCc1ccccc1NC(=O)C(=O)NCCc1sc(-c2cccc(C)c2)nc1C`: the survival is inactive: 92%.

`CCCCC(CC)Cn1c(Oc2ccccc2)nc2c1c(=O)n(C)c(=O)n2C` (stereo not drawn): the survival is active: -15%.

As to `CCn1c(=S)sc2nc(C)sc21`, the survival is inactive: 69%.

In the case of `CC(C)c1cnc2c(c1SCC(=O)Nc1cccc([N+](=O)[O-])c1)c(=O)n(C)c(=O)n2C`, the survival was inactive: 69%.

Turning to `CCn1c(SCC(=O)Nc2ccc(C)c(C)c2)nnc1-c1nonc1NC(C)=O`, the survival is inactive: 110%.

As to `COCCCNc1ncnc2c1nnn2C`, the survival is inactive: 84%.

For `Cc1ccc(Cl)cc1N1CCN(S(=O)(=O)c2ccc3c(c2)CC(=O)N3C)CC1`, the survival is inactive: 97%.

On to `Cc1cccc(-c2cc3nc4c(c(N5CCCC5)n3n2)CCCC4)c1`, for which the survival was inactive: 123%.

`COc1cc(-c2nnc(SCC(=O)Nc3cccc(C#N)c3)o2)cc(OC)c1OC`: the survival was inactive: 110%.

Take `CCOC(=O)C1CCCN(S(=O)(=O)c2ccc3c(c2)N(C)C(=O)CC(=O)N3C)C1` (stereo not drawn): the survival is inactive: 106%.

With `CCc1ccc(CNC(=O)c2cnc3sc(N(CC)CC)nn3c2=O)cc1`, the survival is inactive: 67%.

Turning to `COc1ccc(CCNC(=O)CN2C(=O)COc3ccc(S(=O)(=O)N4CCCCCC4)cc32)cc1OC`, the survival is inactive: 78%.

Turning to `COCCCNC(=O)Cn1c(=O)n(-c2ccc(Cl)cc2)c(=O)c2c3c(sc21)CCCCC3`, the survival was inactive: 87%.

Turning to `O=S(=O)(c1cccc(Cl)c1)c1nnn2c1nc(NC1CCCC1)c1sccc12`, the survival was inactive: 62%.

Consider `CCc1ccc(CNC(=O)c2cc3c(s2)-c2ccccc2OC3)cc1`, for which the survival was inactive: 61%.

As for `Cc1nc(N2CCCC2)ncc1C(=O)NCc1ccccc1Cl`, the survival is inactive: 95%.

For `CCc1nnc2n1N(C(C)=O)C(c1ccc(C(C)(C)C)cc1)=C(C(C)=O)S2`, the survival is inactive: 96%.

Turning to `COc1cc(NC(=O)CSc2nc3nc(C)c(Cc4ccccc4)c(C)n3n2)cc(OC)c1OC`, the survival was inactive: 80%.

On to `COC(=O)c1ccc(NC(=O)C2CCN(S(=O)(=O)c3ccc4c(c3)CCCN4C(C)=O)CC2)cc1`, for which the survival was inactive: 99%.

For `COC(=O)C1CCCc2c1[nH]c1ccc(Cl)cc21` (stereo not drawn), the survival was inactive: 60%.

Turning to `CCOC(=O)c1cc2c(=O)n3ccccc3nc2n(CC2CCCO2)c1=NC(=O)c1cc(C)cc(C)c1` (stereo not drawn), the survival was active: 44%.

With `CC1(C)CC(NC(=O)NCc2ccc3c(c2)OCO3)CC(C)(CNC(=O)NCc2ccc3c(c2)OCO3)C1` (stereo not drawn), the survival was inactive: 78%.

In the case of `COc1ccc(CC(=O)Nc2sc3c(c2C(=O)Nc2ccc(C)cc2)CCCCC3)cc1`, the survival was inactive: 131%.

As for `CCc1cccc(C)c1Nc1c(-c2cccc(O)c2)nc2sccn12`, the survival is inactive: 105%.

On to `Cc1[nH]c2ccccc2c1C1(O)C(=O)N(Cc2ccc(Cl)cc2)c2ccccc21` (stereo not drawn), for which the survival is active: 29%.

As to `Cc1cc(S(=O)(=O)NCCC2=CCCCC2)ccc1-n1cnnn1`, the survival is inactive: 70%.

Turning to `Cc1ccc(N(CC(=O)Nc2ccc(OC(F)(F)F)cc2)S(=O)(=O)c2c(C)noc2C)cc1`, the survival was inactive: 70%.

Take `Cc1[nH]c2c(C)cccc2c1CCNC(=O)c1cc2ccccc2oc1=O`: the survival is inactive: 86%.

In the case of `Cc1ccc(O)c(NC(=O)c2nc3nc(C)cc(C(F)F)n3n2)c1`, the survival is inactive: 118%.

Turning to `CCOc1ccc2[nH]c(=O)c(CN(C(C)=O)C3CCCC3)cc2c1`, the survival was inactive: 78%.

As for `COCCn1c(SCC(=O)c2c[nH]c3ccccc23)nc2cc(C(=O)NCC(C)C)ccc2c1=O`, the survival was inactive: 100%.

In the case of `COc1cccc(N2CCN(C(=O)c3nc(-c4ccc(Cl)cc4)n4c3CCCCC4)CC2)c1`, the survival is inactive: 79%.

`O=c1oc2ccc3ccccc3c2cc1-c1nnc(Nc2cc(C(F)(F)F)ccc2Cl)s1`: the survival was inactive: 95%.

`COc1ccccc1NC(=O)CSc1nc2c(oc3ccccc32)c(=O)n1-c1ccccc1F`: the survival is inactive: 79%.

Regarding `Cc1cc2oc(C(=O)N(Cc3ccc(N(C)C)cc3)CC3CCCO3)c(C)c2cc1Cl` (stereo not drawn), the survival was inactive: 65%.

For the compound `COc1ccc(NC(=O)c2oc3ccccc3c2NC(=O)c2cc(C)cc(C)c2)c(OC)c1`, the survival was inactive: 100%.

In the case of `CCOC(=O)C1CCN(c2nc3ccccc3nc2Cl)CC1`, the survival was active: -24%.

As for `COc1ccc(NC(=O)C2CCN(C(=O)c3sc4nc[nH]c(=O)c4c3C)CC2)cc1Cl`, the survival was inactive: 77%.

As to `CN(CC(=O)Nc1ccc(Br)cc1)S(=O)(=O)c1cccc2nsnc12`, the survival was inactive: 80%.

Turning to `O=C(NC1CCCC1)C(c1ccccc1)N(Cc1ccccc1F)C(=O)c1ccco1` (stereo not drawn), the survival is inactive: 102%.

Take `CCC(c1nnnn1C(C)(C)CC)N1CCN(c2ccccc2)CC1` (stereo not drawn): the survival is inactive: 114%.

As for `COC(=O)c1ccc2c(=O)n3nc(Nc4cc(OC)ccc4OC)sc3nc2c1`, the survival is inactive: 97%.

As for `Cc1ccccc1NC(=O)CSC1=Nc2ccccc2C2=NC(Cc3ccccc3)C(=O)N12` (stereo not drawn), the survival was inactive: 84%.

For `Cc1ccc(OCc2nc(C#N)c(NCCc3ccccc3)o2)cc1`, the survival is active: 35%.

With `CCC(Sc1ncc(S(=O)(=O)c2ccc(Cl)cc2)c(=O)[nH]1)C(=O)Nc1ccc(OC)cc1` (stereo not drawn), the survival was inactive: 89%.

Take `COc1ccc(Cl)cc1NC(=O)CSc1nnc2[nH]c(=O)cc(-c3ccccc3)n12`: the survival is inactive: 85%.

As to `Cc1ccc2[nH]c(=O)c3cc(C(=O)N(CCCOC(C)C)Cc4ccco4)sc3c2c1`, the survival is active: 56%.

With `Cc1ccc(N(C(=O)c2ccco2)C(C(=O)NC2CCCC2)c2ccc(N(C)C)cc2)c(C)c1` (stereo not drawn), the survival was inactive: 93%.

For `Cc1cc(C)c(NC(=O)C(=O)NCC(c2cccnc2)N2CCN(c3ccccc3F)CC2)c(C)c1` (stereo not drawn), the survival was inactive: 58%.

Regarding `CC(=O)Nc1cccc(NC(=O)CSc2nccn2C2CCCC2)c1`, the survival was inactive: 78%.

On to `O=C(CN1C(=O)c2cccc3cccc1c23)Nc1cccc(F)c1`, for which the survival was inactive: 57%.

Take `C=Cc1ccc(Cn2c(C)c(CNCc3ccc(SC)cc3)c(C(=O)O)c2C)cc1`: the survival was inactive: 69%.

Consider `CN(Cc1ccccc1)c1ccc(-c2nc(-c3ccccc3)no2)cc1[N+](=O)[O-]`, for which the survival is inactive: 69%.

In the case of `CCOc1ccc(CCNC(=O)Cn2ccc3cc(S(=O)(=O)N4CCCCC4)ccc32)cc1`, the survival is inactive: 102%.

For `CCOc1ccc2[nH]c(=O)c(CN(CCO)C(=O)Nc3ccc(OC)cc3)cc2c1`, the survival was inactive: 92%.

For `CCN(CCCNC(=O)c1cc(Nc2ccc(OC)cc2)nc2ccccc12)c1cccc(C)c1`, the survival is inactive: 91%.

Take `Cc1ccc(Cl)cc1NC(=O)Nc1cn(CC(C)C)c(=O)c2ccccc12`: the survival was inactive: 59%.

With `Cc1ccccc1CN1C(=O)c2ccccc2Sc2ccc(C(=O)NCc3ccccc3)cc21`, the survival was active: 37%.
